“And” between values parts separate entries of the source, which are not always exact repeats. Identical values can stand only once.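 Following 48 hours of exposure in 96-well plates, responses at five concentrations were used to interpolate endpoints linearly. GI50 marks 50% less growth.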 The source made the active and inactive calls. Rule as the data show it: active = GI50 up to about 1.1 µM and inactive = higher.
Each molecule was assayed on NCI-H322M (assay: NCI anticancer screen, dose series, 48 h).
In the case of `CC(C)(C)OC(=O)CCC1NC(=O)[C@@H]2Cc3c([nH]c4ccccc34)C(C3CCCCC3)N2C1=O` (stereo partly drawn), the GI50 was inactive: 45.6 µM. `COc1ccc(-c2cc3ccccc3oc2=O)cc1OC` was tested, and the GI50 was inactive: > 100 µM. For `CN(C)c1ccc(/N=N\c2cccc3ccoc23)cc1`, the GI50 was inactive: > 100 µM. For `CCc1nc2ccc(NCCN(C)C)c3c(=O)c4ccccc4n1c23`, the GI50 was active: 0.845 µM. `O=C(O)c1ccc(Cc2ccccc2C(=O)O)cc1` was tested, and the GI50 was inactive: > 100 µM. `COc1ccc2nc(-c3ccc(O)cc3)cc(O)c2c1` was tested, and the GI50 was inactive: 1.6 µM. With `NNC(=O)CSc1nc2ccccc2c(=O)n1N` the GI50 was inactive: 81.1 µM. In the case of `COC(=O)C(C(=O)C(=O)Nc1c(Cl)cc([N+](=O)[O-])cc1Cl)c1nc2cc(C)c(C)cc2nc1O` (stereo not drawn), the GI50 was inactive: > 100 µM. For `O=c1[nH]nc(Cc2c[nH]c3ccccc23)o1`, the GI50 was inactive: > 100 µM. For `Cc1cccc2c1Oc1ccccc1C2NC(=O)c1ccc([N+](=O)[O-])cc1` (stereo not drawn), the GI50 was inactive: 57.8 µM. With `CCOC(=O)C1(C)C2=CC=C(O2)C(C)(C)C2=CC=C(O2)C(C)(C)C2=CC=C(O2)C(C)(C)C2=CC=C1O2` the GI50 was inactive: > 100 µM. `CCCCCCCCCCCC(=O)OCCOCCOCCOCCOCCOC(=O)CCCCCCCCCCC` was tested, and the GI50 was inactive: > 100 µM. With `N/C(=N\Nc1cccc(Cl)c1)c1cccnc1` the GI50 was inactive: 70.3 µM. For `CCOC(=O)C1C(c2ccc(O)c(OC)c2)c2c(n[nH]c2O)CC1(C)O` (stereo not drawn), the GI50 was inactive: > 100 µM. `O=C(O)CC1NC(/C(=C/c2ccccc2)NC(=O)c2ccccc2)OC1=O` (stereo not drawn) was tested, and the GI50 was inactive: > 100 µM. `CN(C)NC(=S)Nc1ccccc1Br` was tested, and the GI50 was inactive: > 100 µM. With `Cc1cc2c(O)c(c1)CN(CC(=O)O)Cc1cc(C)cc(c1O)CN(CC(=O)O)Cc1cc(C)cc(c1O)CN(CC(=O)O)C2` the GI50 was inactive: > 100 µM. With `O=C(Oc1cc(=O)c(OC(=O)c2ccccc2)co1)c1ccccc1` the GI50 was inactive: 64.3 µM. `CN(C)CCCN1c2ccccc2CCc2cc([N+](=O)[O-])ccc21` was tested, and the GI50 was inactive: 17.1 µM. `CN(C)CC(/C(Cc1ccccc1)=N\NC(=S)NN)c1ccccc1` (stereo not drawn) was tested, and the GI50 was inactive: > 100 µM. `N#CC(NNC(=O)Cc1ccccc1)c1ccc(O)cc1` (stereo not drawn) was tested, and the GI50 was inactive: > 100 µM. In the case of `O=C(NCCCN1CCN(CCCNC(=O)c2cccc3ccccc23)CC1)c1cccc2ccccc12`, the GI50 was inactive: 83.2 µM. In the case of `Cc1cc(S(=O)(=O)[N-]/C(=N/S(=O)(=O)c2ccc(Cl)cc2)[n+]2ccc(N(C)C)cc2)c(SCC(=O)O)cc1Cl`, the GI50 was inactive: 31.6 µM. For `COc1cc2c(NCCCCCCO[N+](=O)[O-])ncnc2c(OC)c1OC`, the GI50 was inactive: 24.5 µM. In the case of `CC(C)(C)C(=O)C(C(=O)C(C)(C)C)C(=O)C(C)(C)C`, the GI50 was inactive: > 100 µM. `CC(C)N(C(=O)C12C3C4C5C3C1(C#N)C5C42)C(C)C` (stereo not drawn) was tested, and the GI50 was inactive: > 100 µM. For `Cc1ccc(-n2cc(/C(N)=N/O)c3ccccc3c2=O)cc1`, the GI50 was inactive: > 100 µM. For `COC(=O)c1sc(=S)sc1SCc1ccc(CSc2sc(=S)sc2C(=O)OC)cc1`, the GI50 was inactive: > 100 µM. In the case of `CCOC(=O)/C(C[C@H]1OC(C)(C)O[C@@H]1[C@H]1COC(C)(C)O1)=N/O`, the GI50 was inactive: > 100 µM. With `CN(CCNC(=O)c1nn(C)c2c1Cc1ccccc1-2)CCNC(=O)c1nn(C)c2c1Cc1ccccc1-2` the GI50 was inactive: 16.9 µM. With `O=C1CC23CC(=O)CC2(C1)c1ccccc1C3=O` (stereo not drawn) the GI50 was inactive: > 100 µM. With `Cc1c(C(Cc2ccccc2N(C)C(=O)/C=C\C(=O)O)c2c[nH]c3ccccc23)c2ccccc2n1C` (stereo not drawn) the GI50 was inactive: 16.3 µM. `CCCOC(=O)c1cc(C(=CCC[C@H]2CC[C@@]3(C)[C@@H](CC[C@@H]4[C@@H]3CC[C@]3(C)[C@@H](C(C)CCCC(C)C)CC[C@@H]43)C2)c2cc(Cl)c(O)c(C(=O)OCCC)c2)cc(Cl)c1O` (stereo partly drawn) was tested, and the GI50 was inactive: > 50 µM. In the case of `CCN(CCO)CC1COc2ccccc2O1` (stereo not drawn), the GI50 was inactive: > 100 µM. For `COc1ccc(/C=N/C23CC4CC(CC(C4)C2)C3)cc1`, the GI50 was inactive: > 100 µM. `O=C1/C(=C/c2n[nH]cc2-c2ccc(Cl)cc2)C(=O)N(c2ccccc2)C1c1ccccc1` (stereo not drawn) was tested, and the GI50 was inactive: 25.6 µM. For `NC(=O)CO/N=C1/C(=C2/C(=O)Nc3ccccc32)Nc2ccccc21`, the GI50 was inactive: 12 µM. In the case of `CN(C)C(=S)/N=c1\ssc(=S)n1C1CCCCC1`, the GI50 was inactive: 82.2 µM. With `COc1cccc(CCNC(=O)Cc2ccccc2CCO)c1` the GI50 was inactive: > 100 µM. In the case of `CCCc1nc(Cl)c(Cl)c(Cl)n1`, the GI50 was inactive: 2.64 µM. In the case of `COc1ccc(-c2c(C#N)c(N)n(C3OCC(OC(C)=O)C(OC(C)=O)C3OC(C)=O)c(=S)c2C#N)cc1` (stereo not drawn), the GI50 was inactive: 47.9 µM and inactive: 76.4 µM. With `CCOC(=O)N1CCN(c2c(C)nc(C)nc2O)CC1` the GI50 was inactive: > 100 µM. For `CC(=O)NNc1nc(C)c(C(=O)NNC(=O)C(=O)Nc2c(C)cccc2C(C)(C)C)s1`, the GI50 was inactive: > 100 µM. For `CN(O)C(=O)SCC(NC(=O)CCC(N)C(=O)O)C(=O)NCC(=O)O` (stereo not drawn), the GI50 was inactive: 418 µM. With `N#Cc1c(N2CCC(O)C2)c2ccccc2n2c1nc1ccccc12` (stereo not drawn) the GI50 was inactive: > 100 µM. With `O=C1N[C@@H]2c3c(csc3Br)C(=O)[C@@H]2O1` the GI50 was inactive: 38.1 µM. In the case of `CSCC(CO)NC(=O)/C=C/c1c(C)[nH]c(=O)[nH]c1=O` (stereo not drawn), the GI50 was inactive: 62.4 µM. In the case of `Cc1nc2c(C)ccc([N+](=O)[O-])c2c(NCCCN(C)C)c1C`, the GI50 was inactive: > 60.3 µM. `CCc1ccccc1NC(=O)C(=O)CC(=O)c1sc(Nc2ccccc2)nc1C` was tested, and the GI50 was inactive: > 100 µM. `CC1=NN2CCC(=O)N=C2S1` was tested, and the GI50 was inactive: > 100 µM. With `CCOC(=O)/C(=N/Nc1ccc(Cl)cc1)N1C(=S)N(C)N=C(C)C=C1S` the GI50 was inactive: 49.9 µM. For `CCN(CC)c1ccc2cc(C(N)=S)c(=N)oc2c1`, the GI50 was inactive: > 100 µM. With `C[N+](C)(C)CC(=O)N/N=C(/Cc1nc2c3c(ccc2nc1O)C(=O)c1ccccc1C3=O)C(=O)Nc1ccc(Cl)c(Cl)c1` the GI50 was inactive: 49.4 µM. `COc1ccc(CSc2nc3ccccc3nc2-c2cccs2)cc1` was tested, and the GI50 was inactive: > 100 µM. `COc1cccc(NC(=O)C(C)(C)C)c1SSc1c(NC(=O)C(C)(C)C)cccc1OC` was tested, and the GI50 was inactive: > 100 µM. `CC1(C)O[C@@H]([C@@H](O)[C@H](O)C2SCCCS2)[C@@H](CO)O1` was tested, and the GI50 was inactive: > 100 µM. With `CCCCCCCCOc1ccc(/C=C/C2=[N+](CCO)CCO2)cc1` the GI50 was inactive: 10.6 µM. For `CN(C)c1ccc(/C=c2/c3ccccc3n3nc4ccccc4c23)cc1`, the GI50 was inactive: > 100 µM. For `COc1ccc(C2=Nc3ccccc3SC(C)C2)cc1OC` (stereo not drawn), the GI50 was inactive: 29.9 µM. In the case of `CN(C)c1cc[n+](-c2nc([N-]C(=O)C(F)(F)F)nc3c2ncn3C2CC(O)C(CO)O2)cc1` (stereo not drawn), the GI50 was inactive: > 100 µM. For `Nc1nc(N)c2cc(-c3ccccc3)cnc2n1`, the GI50 was inactive: 19.7 µM. In the case of `Oc1ccc(Cc2nccc3cc(O)c(O)cc23)cc1O`, the GI50 was inactive: 57.4 µM. In the case of `CCOC(=O)NC(=O)c1cn(CCCOC(=O)CCCCCCCCCCC(=O)OCCCn2cc(C(=O)NC(=O)OCC)c(=O)n(C)c2=O)c(=O)n(C)c1=O`, the GI50 was inactive: > 100 µM. With `O=[N+]([O-])/C(C(Cl)=C(Cl)Cl)=C(\NCc1ccccc1)Sc1ccccc1` the GI50 was inactive: 38.5 µM. With `CC1=NN(C(=O)CC(=O)Nc2ccccc2)C(=O)C1/N=N/c1ccc(S(N)(=O)=O)cc1` (stereo not drawn) the GI50 was inactive: > 100 µM. In the case of `CCOC(=O)Nc1cc2ccccc2c(/N=N/c2ccccc2)c1O`, the GI50 was inactive: > 100 µM. For `OCC(O)C(O)c1nn(-c2ccccc2)c2nc3cc(Cl)c(Cl)cc3nc12` (stereo not drawn), the GI50 was inactive: 29.2 µM. `CCCCCCC(=O)OC[n+]1cccc(-c2c(COC(=O)NC(C)C)c(COC(=O)NC(C)C)c3n2CCC3)c1` was tested, and the GI50 was inactive: > 78.2 µM. For `COc1ccc(C(=C(Cl)c2ccccc2)c2ccc(OC)cc2)cc1`, the GI50 was inactive: > 100 µM. With `O=C1CC=C2C3CC4N(CCC45c4ccccc4N1C25)C/C3=C\CO` (stereo not drawn) the GI50 was inactive: > 100 µM. In the case of `CN(/N=C(\C(=O)O)c1ccccc1)C1=NCCCCN1`, the GI50 was inactive: > 100 µM. In the case of `N#C/C(=N/Nc1[nH]cnc1C(N)=O)C(=O)Nc1ccccc1`, the GI50 was inactive: > 100 µM. With `CC(Cn1c2c3ccccc3ccc2c2oc(=O)c3ccccc3c21)N(C)C` (stereo not drawn) the GI50 was inactive: > 100 µM. `O=c1c2ccccc2oc2c1ccc1ncccc12` was tested, and the GI50 was inactive: 15.2 µM. `CN(C)c1ccc(/C=N/N=C2\C(=O)Nc3c(Cl)cc(Cl)cc32)cc1` was tested, and the GI50 was inactive: > 100 µM. `COc1ccc(COCC[C@H](C)OC2OC(CO)C(O)C(O)C2O)cc1` (stereo partly drawn) was tested, and the GI50 was inactive: > 100 µM. In the case of `c1ccc(COc2ccc(CC3SCCCS3)cc2)cc1`, the GI50 was inactive: > 100 µM. In the case of `NCCCCN(CCCN)/[N+]([O-])=N\O`, the GI50 was inactive: > 100 µM. In the case of `[O-][n+]1onc2c1/C(=N/O)CCC2`, the GI50 was inactive: > 100 µM. `C=CCNC(=S)N/C=C(\C#N)C(N)=O` was tested, and the GI50 was inactive: > 100 µM. In the case of `Cc1ccc(CCNC(=S)SCC(NC(=O)CCC(N)C(=O)O)C(=O)NCC(=O)O)cc1` (stereo not drawn), the GI50 was inactive: 3.63 µM. `O=c1[nH]nc2ccccc2c1Cl` was tested, and the GI50 was inactive: 12.3 µM. `O=C(O)c1ccc(Nc2c3ccccc3nc3ccccc23)cc1` was tested, and the GI50 was inactive: > 100 µM. With `COc1cc([N+](=O)[O-])c(OC)c2c(Nc3ccc(S(=O)(=O)O)c4cc(S(=O)(=O)O)cc(S(=O)(=O)O)c34)cc(C)nc12` the GI50 was inactive: > 100 µM. `CO[C@H]1C[C@H](n2cc(C)c(=O)[nH]c2=O)O[C@@H]1CO` was tested, and the GI50 was inactive: > 100 µM. For `CCOC(=O)c1cnc(-n2[nH]c(C)c(CCO)c2=O)[nH]c1=O`, the GI50 was inactive: > 100 µM. `CC(=O)O[C@H]1[C@H](O[C@H]2CC[C@]34C[C@]35CC[C@]3(C)[C@@H]([C@@]6(C)CC[C@@H](C(C)(C)O)O6)[C@@H](O)C[C@@]3(C)[C@@H]5C[C@H](O[C@@H]3O[C@H](CO)[C@@H](O)[C@H](O)[C@H]3O)[C@H]4C2(C)C)OC[C@@H](O)[C@@H]1O` was tested, and the GI50 was inactive: > 100 µM. `Clc1ccc(C(c2ccc(Cl)cc2)N2CCNCC2)cc1` was tested, and the GI50 was inactive: 2.74 µM. `Oc1ccc(-c2nc3ccc(F)cc3s2)cc1` was tested, and the GI50 was inactive: 17.4 µM. With `O=C(/C=C/C=C/c1ccccc1)CCc1ccccc1` the GI50 was inactive: > 100 µM. For `N#C/C(=C\c1c[nH]c2ccccc12)C(=O)c1ccc(O)c(O)c1`, the GI50 was inactive: 41.2 µM. `O=C(O)Cc1c[nH]c2ccc(F)cc12` was tested, and the GI50 was inactive: > 100 µM. `COc1ccc(CNc2cc(OC)c(OC)c(OC)c2)cc1` was tested, and the GI50 was inactive: 5.53 µM.

Source: ChEMBL document CHEMBL1201862, “PubChem BioAssay data set” (2004)
